# Results published in the supplement of paper PMC8728848.
# The other results are listed elsewhere or left out.
# B1: GS13686A-pdi-553-26-553 (Parabacteroides distasonis) (protein)
# chain: NENPDKPTDDVNYNMNEPRLASTLRGGLIIEGNVEQRLKPLQIDFYSQMTVDGGGWGTKNYIQDDEWNNLVWEEYLKQIASINIVIRSLTEKDKDAYANTIAFARIWRVYVHTLAADKFGPMPFPAYEIVEANPPYKSLKDIYDEYFRELDAAINGFNDSAQPIFSDAGIDLIYKNDVSKWKRFANSLRLRLAVRLTEVDQEKCIAEANAAISSPAGLISDKADNAYMPPKADGSWGQDYNYTMFQITWSGPICMSKSVEKLVTNIGGVAWPQGVVNQTSGVAVSSVHPEKVDPRAPKIFQPGIENGDWKGLVYGPKAEEANTGIYQSKQCAELGFIIKDGYPYKSRPYDLFLSEEVHFLKAELYARGFIAGDAKSEYEAGVRASFATWGVTSEVDDYLTSTEKNEAGTSARYDDQQGAGNTALEKIITQKYIAGIPDLAQEGWNDKRRLNLPRLDVAVYRDQAVYNNNDKDILKSANFIKRMRYPTKESLINATEYEKGKSMLGGKGDIVSTPLWWDKNSNYCTSSK
# Experiments:
# Test in all cases: glycan array binding signal (z-score within array); higher = stronger binding
# Settings in all cases: glycan notation: IUPAC condensed, linker removed
# [1] = biological target: Neu5Ac(a2-6)Gal(b1-4)GlcNAc(b1-6)GalNAc
# How it was run: (§1)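 The binding signal is a Z-score computed within each array and averaged over linkers. Arrays of the same protein sequence at different concentrations or buffers were also averaged together. Data originate from 3228 arrays in the Consortium for Functional Glycomics database, kept only where the protein sequence was available.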
# [2] = biological target: Neu5Ac(a2-6)Gal(b1-4)GlcNAc(b1-6)[Gal(b1-3)GlcNAc(b1-3)]Gal(b1-4)Glc
# How it was run: as §1
# [3] = biological target: Neu5Ac(a2-6)Gal(b1-4)GlcNAc(b1-6)[Gal(b1-3)]GalNAc
# How it was run: as §1
# [4] = biological target: Neu5Ac(a2-6)Gal(b1-4)GlcNAc6S
# How it was run: as §1
# [5] = biological target: Neu5Ac(a2-6)GalNAc
# How it was run: as §1
# [6] = biological target: Neu5Ac(a2-6)GalNAc(b1-4)GlcNAc
# How it was run: as §1
# [7] = biological target: Neu5Ac(a2-6)GalNAc(b1-4)GlcNAc6S
# How it was run: as §1
# [8] = biological target: Neu5Ac(a2-6)GlcNAc(b1-4)GlcNAc
# How it was run: as §1
# [9] = biological target: Neu5Ac(a2-6)GlcNAc(b1-4)GlcNAc(b1-4)GlcNAc
# How it was run: as §1
# [10] = biological target: Neu5Ac(a2-8)Neu5Ac
# How it was run: as §1
# [11] = biological target: Neu5Ac(a2-8)Neu5Ac(a2-3)Gal(b1-3)GalNAc(b1-4)[Neu5Ac(a2-3)]Gal(b1-4)Glc
# How it was run: as §1
# [12] = biological target: Neu5Ac(a2-8)Neu5Ac(a2-3)Gal(b1-3)GalNAc(b1-4)[Neu5Ac(a2-8)Neu5Ac(a2-3)]Gal(b1-4)Glc
# How it was run: as §1
# [13] = biological target: Neu5Ac(a2-8)Neu5Ac(a2-3)Gal(b1-4)Glc
# How it was run: as §1
# [14] = biological target: Neu5Ac(a2-8)Neu5Ac(a2-3)Gal(b1-4)GlcNAc
# How it was run: as §1
# [15] = biological target: Neu5Ac(a2-8)Neu5Ac(a2-3)[Gal(b1-3)GalNAc(b1-4)]Gal(b1-4)Glc
# How it was run: as §1
# [16] = biological target: Neu5Ac(a2-8)Neu5Ac(a2-3)[GalNAc(b1-4)]Gal(b1-4)Glc
# How it was run: as §1
# [17] = biological target: Neu5Ac(a2-8)Neu5Ac(a2-8)Neu5Ac
# How it was run: as §1
# [18] = biological target: Neu5Ac(a2-8)Neu5Ac(a2-8)Neu5Ac(a2-3)Gal(b1-4)Glc
# How it was run: as §1
# [19] = biological target: Neu5Ac(a2-8)Neu5Ac(a2-8)Neu5Ac(a2-3)[Gal(b1-3)GalNAc(b1-4)]Gal(b1-4)Glc
# How it was run: as §1
# [20] = biological target: Neu5Ac(a2-8)Neu5Ac(a2-8)Neu5Ac(a2-3)[GalNAc(b1-4)]Gal(b1-4)Glc
# How it was run: as §1
# [21] = biological target: Neu5Ac(a2-8)Neu5Ac(a2-8)Neu5Ac(a2-8)Neu5Ac(a2-3)[GalNAc(b1-4)]Gal(b1-4)Glc
# How it was run: as §1
# [22] = biological target: Neu5Ac(a2-8)Neu5Gc(a2-3)Gal(b1-4)GlcNAc
# How it was run: as §1
# [23] = biological target: Neu5Ac(b2-6)Gal(b1-4)GlcNAc
# How it was run: as §1
# [24] = biological target: Neu5Ac(b2-6)GalNAc
# How it was run: as §1
# [25] = biological target: Neu5Ac9Ac(a2-3)Gal(b1-3)GlcNAc
# How it was run: as §1
# [26] = biological target: Neu5Ac9Ac(a2-3)Gal(b1-4)GlcNAc
# How it was run: as §1
# [27] = biological target: Neu5Ac9Ac(a2-6)Gal(b1-4)GlcNAc
# How it was run: as §1
# [28] = biological target: Neu5Gc(a2-3)Gal(b1-3)GlcNAc
# How it was run: as §1
# [29] = biological target: Neu5Gc(a2-3)Gal(b1-3)[Fuc(a1-4)]GlcNAc
# How it was run: as §1
# [30] = biological target: Neu5Gc(a2-3)Gal(b1-4)Glc
# How it was run: as §1
# [31] = biological target: Neu5Gc(a2-3)Gal(b1-4)GlcNAc
# How it was run: as §1
# [32] = biological target: Neu5Gc(a2-3)Gal(b1-4)GlcNAc(b1-3)Gal(b1-4)GlcNAc(b1-2)Man(a1-3)[Neu5Gc(a2-3)Gal(b1-4)GlcNAc(b1-3)Gal(b1-4)GlcNAc(b1-2)Man(a1-6)]Man(b1-4)GlcNAc(b1-4)GlcNAc
# How it was run: as §1
# [33] = biological target: Neu5Gc(a2-3)Gal(b1-4)[Fuc(a1-3)]GlcNAc
# How it was run: as §1
# [34] = biological target: Neu5Gc(a2-6)Gal(b1-4)GlcNAc
# How it was run: as §1
# [35] = biological target: Neu5Gc(a2-6)GalNAc
# How it was run: as §1
# [36] = biological target: Neu5Gc(a2-8)Neu5Ac(a2-3)Gal(b1-4)GlcNAc
# How it was run: as §1
# [37] = biological target: Neu5Gc(a2-8)Neu5Gc(a2-3)Gal(b1-4)GlcNAc
# How it was run: as §1
# [38] = biological target: Neu5Gc(a2-8)Neu5Gc(a2-3)Gal(b1-4)GlcNAc(b1-3)Gal(b1-4)GlcNAc
# How it was run: as §1
binder,measurement,setting,value
B1,glycan array binding signal (z-score),[1],-0.164
same,glycan array binding signal (z-score),[2],-0.013
same,glycan array binding signal (z-score),[3],-0.227
same,glycan array binding signal (z-score),[4],-0.181
same,glycan array binding signal (z-score),[5],-0.309
same,glycan array binding signal (z-score),[6],-0.419
same,glycan array binding signal (z-score),[7],0.236
same,glycan array binding signal (z-score),[8],-0.236
same,glycan array binding signal (z-score),[9],-0.11
same,glycan array binding signal (z-score),[10],-0.281
same,glycan array binding signal (z-score),[11],-0.122
same,glycan array binding signal (z-score),[12],0.891
same,glycan array binding signal (z-score),[13],-0.157
same,glycan array binding signal (z-score),[14],-0.184
same,glycan array binding signal (z-score),[15],-0.014
same,glycan array binding signal (z-score),[16],0.06
same,glycan array binding signal (z-score),[17],-0.353
same,glycan array binding signal (z-score),[18],-0.13
same,glycan array binding signal (z-score),[19],0.013
same,glycan array binding signal (z-score),[20],0.334
same,glycan array binding signal (z-score),[21],0.062
same,glycan array binding signal (z-score),[22],0.094
same,glycan array binding signal (z-score),[23],0.458
same,glycan array binding signal (z-score),[24],-0.38
same,glycan array binding signal (z-score),[25],-0.071
same,glycan array binding signal (z-score),[26],-0.161
same,glycan array binding signal (z-score),[27],-0.251
same,glycan array binding signal (z-score),[28],-0.353
same,glycan array binding signal (z-score),[29],-0.275
same,glycan array binding signal (z-score),[30],-0.17
same,glycan array binding signal (z-score),[31],-0.175
same,glycan array binding signal (z-score),[32],0.173
same,glycan array binding signal (z-score),[33],0.009
same,glycan array binding signal (z-score),[34],0.07
same,glycan array binding signal (z-score),[35],-0.384
same,glycan array binding signal (z-score),[36],-0.435
same,glycan array binding signal (z-score),[37],0.041
same,glycan array binding signal (z-score),[38],-0.323
